Reference: PubChem BioAssay AID504332 (National Center for Advancing Translational Sciences (NCATS), 2011)
In all, about 350,000 compounds went through this assay and about 31,000 (8.9%) were called active. Inconclusive results, whose numbers are uncertain, are shown with a selection of clear calls. Calls follow the shape of the dose curve; as a rule, active = well fitted inhibition curve with a large enough effect; inconclusive = small, poorly fitted or top-dose-only effect; inactive = no such curve, though single readings can be large or run the other way. A potency beside an inconclusive call is a rough fit, not a confirmed value.

The compounds below were run against Histone-lysine N-methyltransferase EHMT2 (Homo sapiens) (UniProt Q96KQ7) (assay: qHTS Assay for Inhibitors of Histone Lysine Methyltransferase G9a). Conditions: G9a H3K9 monomethylation, AlphaScreen, 2 h; activity, negative = inhibition: at 59 µM (top of the series) unless noted.
Procedure, shortened: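 Step 1: enzyme (final 20 nM) with compound, 15 min RT. Step 2: substrate peptide 500 nM and SAM 20 uM, 2 h RT. Step 3: anti-H3K9me1 antibody and AlphaScreen beads, 10 min, then plate read.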
% is scaled to controls: 0 for no effect and ±100 for the full control effect; potency is read from the fitted curve at half-maximal effect; tags tell the direction and shape of the fitted curve.
Also: nearly all actives have a fitted effect of over 75% in size.

Chain of UniProt Q96KQ7 (Q96KQ7 whole entry, looked up): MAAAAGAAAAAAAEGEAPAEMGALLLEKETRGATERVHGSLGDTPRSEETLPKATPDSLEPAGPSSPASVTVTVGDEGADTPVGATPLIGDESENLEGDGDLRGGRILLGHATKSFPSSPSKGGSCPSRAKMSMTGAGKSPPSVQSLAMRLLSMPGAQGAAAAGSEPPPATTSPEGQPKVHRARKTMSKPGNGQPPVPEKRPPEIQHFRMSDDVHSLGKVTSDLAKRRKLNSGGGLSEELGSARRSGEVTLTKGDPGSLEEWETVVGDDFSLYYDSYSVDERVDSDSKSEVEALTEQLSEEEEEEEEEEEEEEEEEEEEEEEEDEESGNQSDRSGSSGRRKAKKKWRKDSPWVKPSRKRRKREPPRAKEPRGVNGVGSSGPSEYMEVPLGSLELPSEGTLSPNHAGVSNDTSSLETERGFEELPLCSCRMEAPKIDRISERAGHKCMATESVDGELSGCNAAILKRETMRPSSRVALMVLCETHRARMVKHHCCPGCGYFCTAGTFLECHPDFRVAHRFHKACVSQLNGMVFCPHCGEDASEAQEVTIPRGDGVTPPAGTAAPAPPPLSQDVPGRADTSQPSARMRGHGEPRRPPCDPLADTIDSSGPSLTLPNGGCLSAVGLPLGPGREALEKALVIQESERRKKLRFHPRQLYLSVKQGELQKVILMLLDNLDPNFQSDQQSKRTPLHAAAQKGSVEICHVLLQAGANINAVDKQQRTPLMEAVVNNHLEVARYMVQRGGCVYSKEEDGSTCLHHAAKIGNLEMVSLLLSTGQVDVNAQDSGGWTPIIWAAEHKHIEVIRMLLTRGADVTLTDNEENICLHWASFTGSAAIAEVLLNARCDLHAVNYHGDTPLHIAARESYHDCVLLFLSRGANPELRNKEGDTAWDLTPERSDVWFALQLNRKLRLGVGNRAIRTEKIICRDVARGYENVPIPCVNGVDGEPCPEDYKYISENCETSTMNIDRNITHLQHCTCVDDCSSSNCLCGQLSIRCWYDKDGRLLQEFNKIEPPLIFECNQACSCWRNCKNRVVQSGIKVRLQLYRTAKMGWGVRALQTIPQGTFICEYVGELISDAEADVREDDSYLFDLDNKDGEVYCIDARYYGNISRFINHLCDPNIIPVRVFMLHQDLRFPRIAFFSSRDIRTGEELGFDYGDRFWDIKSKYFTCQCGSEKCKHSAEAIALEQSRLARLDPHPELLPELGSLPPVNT

Question: With `CC(C)c1ccc(Nc2nc(NCc3ccco3)nc(N3CCOCC3)n2)cc1` as the compound, how does the Potency read?
Answer: The Potency was inconclusive: 50.1 µM [inhibitor, partial curve].

Question: How did the Potency turn out when `Cc1ccc(/C=C/C(=O)N2CCN(Cc3ccccc3)CC2)o1` was run?
Answer: The Potency was active: 3.98 µM.

Question: `CCOc1ccc(-c2nnc(SCC(=O)c3ccc(Br)cc3)n2-c2ccccc2)cc1` was tested. Which Potency did it give?
Answer: Its Potency is inconclusive: 44.7 µM [inhibitor, partial curve, poor fit].

Question: Which Potency does the source give for `CC(C#N)Sc1ccc(S(=O)(=O)N(C)C2CCCCC2)cn1` (stereo not drawn) here?
Answer: Its Potency is inconclusive: 1.26 µM [inhibitor, full curve, poor fit].

Question: `COc1ccc(-c2nnc3ccc(SCC(=O)Nc4nc5ccc(C)cc5s4)nn23)cc1OC` was tested. Which Potency did it give?
Answer: Its Potency is inconclusive: 89.1 µM [inhibitor, single point].

Question: How did the Potency turn out when `CC(C)Cn1c(N)c(C(=O)COC(=O)/C=C/c2ccccc2)c(=O)n(C)c1=O` was run?
Answer: Its Potency is inconclusive: 79.4 µM [inhibitor, single point].

Question: For `O=C(CSc1nnc(-c2ccco2)n1CC1CCCO1)c1ccc(F)cc1` (stereo not drawn), which Potency is on record?
Answer: The Potency was active: 44.7 µM.

Question: For `Cc1ccc(S(=O)(=O)NC(=O)c2cc(C)n(CCCN3CCOCC3)c2C)cc1`, which Potency is on record?
Answer: The Potency was inconclusive: 3.16 µM [inhibitor, single point].

Question: How did the Potency turn out when `CCOc1ccccc1N(CC(=O)NC(C)(C)C)C(=O)Cn1nnc(-c2ccc(C)o2)n1` was run?
Answer: Its Potency is inconclusive: 3.16 µM [inhibitor, partial curve, poor fit].

Question: How did the Potency turn out when `O=C(CCCC(=O)N/N=C\c1ccccn1)N/N=C\c1ccccn1` was run?
Answer: The Potency was inconclusive: 28.2 µM [inhibitor, partial curve, poor fit].

Question: For `O=C(NCCC1=CCCCC1)C1CCCN(S(=O)(=O)c2ccccc2)C1` (stereo not drawn), which activity, negative = inhibition is on record?
Answer: The activity, negative = inhibition was inconclusive: -56.1% [inhibitor] [at 12.7 µM].

Question: For `O=C(CSc1nnc(Cc2ccccc2)n1Cc1ccco1)NC12CC3CC(CC(C3)C1)C2`, which activity, negative = inhibition is on record?
Answer: The activity, negative = inhibition was inactive: 3.03% [at 12.7 µM].

Question: For `Oc1ccc(C2Nc3cccc4cccc(c34)N2)c(O)c1`, which Potency is on record?
Answer: Its Potency is active: 44.7 µM.

Question: Which “activity, negative = inhibition” value does the source give for `Cc1ccc(NC(=O)CSc2nnc(-c3ccc(Br)cc3)o2)c(C)c1` here?
Answer: Its value is inactive: -1.5%.

Question: How did the Potency turn out when `CC(=O)Nc1ccc(S(=O)(=O)NCCC(=O)N2CCc3ccccc32)cc1` was run?
Answer: Its Potency is inconclusive: 89.1 µM [inhibitor, single point].

Question: With `CCOCCCNC(=O)c1ccccc1SCC` as the compound, how does the Potency read?
Answer: Its Potency is inconclusive: 12.6 µM [inhibitor, partial curve, poor fit].

Question: Which Potency does the source give for `CCCOc1ccc(C(CC(=O)O)NC(=O)c2sc3ccccc3c2Cl)cc1` (stereo not drawn) here?
Answer: Its Potency is inconclusive: 89.1 µM [inhibitor, partial curve, poor fit].

Question: Which Potency does the source give for `Cc1cc2c(NCc3ccccc3)ncnc2s1` here?
Answer: Its Potency is inconclusive: 89.1 µM [inhibitor, single point].

Question: Which “activity, negative = inhibition” value does the source give for `COC(=O)Cc1c(C)c2ccc(OCC(=O)N(C)C)cc2oc1=O` here?
Answer: Its value is inactive: 15.3% [at 102 µM].

Question: With `COC(=O)c1nc(NC(=O)c2ccccc2)n[nH]1` as the compound, how does the activity, negative = inhibition read?
Answer: Its activity, negative = inhibition is inactive: -8.15% [at 12.7 µM].

Question: For `CC(Cc1ccccc1)C(=O)N[C@@H](CO)Cc1ccccc1` (stereo partly drawn), which Potency is on record?
Answer: Its Potency is inconclusive: 89.1 µM [inhibitor, single point].

Question: With `Cc1sc(NC(=O)c2ccco2)c(C(c2cccnc2)N2CCN(CCO)CC2)c1C` (stereo not drawn) as the compound, how does the Potency read?
Answer: Its Potency is inconclusive: 89.1 µM [inhibitor, single point].

Question: For `CC1CCc2sc(-c3n[nH]c(=S)o3)cc2C1` (stereo not drawn), which Potency is on record?
Answer: The Potency was active: 12.6 µM.

Question: With `CCOC(=O)Nc1cc(OC)c(OC)cc1Cc1nccc2cc(OC)c(OC)cc12` as the compound, how does the Potency read?
Answer: Its Potency is inconclusive: 3.16 µM [inhibitor, single point].

Question: How did the “activity, negative = inhibition” value turn out when `COc1ccc(CNC(=O)c2ccc3nc(C(C)C)oc3c2)cc1OC` was run?
Answer: The value was inactive: 4.37%.

Question: How did the Potency turn out when `O=C(OCC(=O)N1CCc2ccccc2C1)c1ccc(N2CCOCC2)c([N+](=O)[O-])c1` was run?
Answer: Its Potency is active: 39.8 µM.

Question: How did the Potency turn out when `O=C(OC1CCOC1=O)c1ccccc1C(=O)c1ccc(Cl)c([N+](=O)[O-])c1` (stereo not drawn) was run?
Answer: The Potency was inconclusive: 4.47 µM [inhibitor, single point].

Question: With `Cc1cc(C(=O)NNC(=S)NCc2ccco2)nn1C` as the compound, how does the “activity, negative = inhibition” value read?
Answer: Its value is inactive: -43.1% [at 102 µM].

Question: For `Cc1occc1-c1nnc(SCC(=O)N2CCOCC2)n1CC(C)C`, which “activity, negative = inhibition” value is on record?
Answer: Its value is inactive: -10.9%.

Question: For `COc1ccc(S(=O)(=O)NCc2ccco2)cc1-c1nnc2c3ccccc3c(C)nn12`, which activity, negative = inhibition is on record?
Answer: The activity, negative = inhibition was inconclusive: -58.2% [inhibitor].

Question: Which “activity, negative = inhibition” value does the source give for `CC(O/N=C/c1ccc(OC(F)F)cc1)C(=O)Nc1cccc(S(=O)(=O)N2CCOCC2)c1` (stereo not drawn) here?
Answer: The value was inactive: 13.9%.

Question: `O=[N+]([O-])c1cc([N+](=O)[O-])c(Oc2cccc(Cl)c2Cl)cc1NN1CCCCC1` was tested. Which Potency did it give?
Answer: The Potency was inconclusive: 79.4 µM [inhibitor, single point].

Question: Which Potency does the source give for `O=c1[nH]c2ccc(NS(=O)(=O)c3ccc([N+](=O)[O-])cc3)cc2[nH]1` here?
Answer: The Potency was inconclusive: 44.7 µM [inhibitor, partial curve].

Question: Which activity, negative = inhibition does the source give for `COc1ccc(-c2nc3cnc(Nc4cccc(OC)c4)nc3n(C[C@H]3CCCO3)c2=O)cc1` here?
Answer: The activity, negative = inhibition was inactive: -0.308% [at 0.501 µM].

Question: With `Cc1cc(C)c2c(=O)cc(C(=O)NCc3ccc(S(N)(=O)=O)cc3)oc2c1` as the compound, how does the “activity, negative = inhibition” value read?
Answer: Its value is inactive: 23.1%.

Question: With `CN(C)S(=O)(=O)c1ccc(N2CCCC2)c(C(=O)NNC(=O)COc2ccc(Cl)cc2)c1` as the compound, how does the Potency read?
Answer: Its Potency is inconclusive: 79.4 µM [inhibitor, single point].

Question: How did the Potency turn out when `COc1ccc(-n2nc(C(=O)NCC(=O)N3CCN(C)CC3)c3ccccc3c2=O)cc1OC` was run?
Answer: The Potency was inconclusive: 39.8 µM [inhibitor, single point].

Question: With `N#CCCN(C(=O)COC(=O)c1ccc2c(=O)n3c(nc2c1)CCC3)c1ccc(F)cc1` as the compound, how does the “activity, negative = inhibition” value read?
Answer: The value was inactive: -23.1% [at 102 µM].

Question: How did the Potency turn out when `CCOC(=O)N1CCN(C2CCCN(C(=O)c3ccccc3SC)C2)CC1` (stereo not drawn) was run?
Answer: Its Potency is inconclusive: 50.1 µM [inhibitor, partial curve, poor fit].

Question: How did the Potency turn out when `O=C(Nc1nc2c(s1)CN(Cc1ccccc1)CC2)c1c(F)cccc1F` was run?
Answer: The Potency was active: 8.91 µM.

Question: Which Potency does the source give for `Cn1c(SCC(=O)NCc2ccccc2)nnc1-c1ccc(NC(=O)CCc2ccccc2)cc1` here?
Answer: Its Potency is inconclusive: 1.78 µM [inhibitor, partial curve, poor fit].

Question: For `O=C(Nc1cc(Cl)ccc1O)c1cc(-c2ccco2)on1`, which Potency is on record?
Answer: The Potency was inconclusive: 89.1 µM [inhibitor, single point].

Question: How did the Potency turn out when `Cc1nc2cccnc2n1-c1cccc(C(=O)NCCc2ccc(S(N)(=O)=O)cc2)c1` was run?
Answer: The Potency was inconclusive: 3.55 µM [inhibitor, partial curve, poor fit].
